Out of some 310,000 compounds screened, about 2,200 (0.71%) showed an effect of 50% or more. Effects have a minus sign here. The list shows a part of the results.
What follows are molecules tested against human ether-à-go-go-related gene (hERG) potassium channel (human, UniProt Q12809) (assay: primary screen, population patch clamp on CHO cells stably expressing hERG).
Sequence of human ether-à-go-go-related gene (hERG) potassium channel (Q12809 whole entry, looked up): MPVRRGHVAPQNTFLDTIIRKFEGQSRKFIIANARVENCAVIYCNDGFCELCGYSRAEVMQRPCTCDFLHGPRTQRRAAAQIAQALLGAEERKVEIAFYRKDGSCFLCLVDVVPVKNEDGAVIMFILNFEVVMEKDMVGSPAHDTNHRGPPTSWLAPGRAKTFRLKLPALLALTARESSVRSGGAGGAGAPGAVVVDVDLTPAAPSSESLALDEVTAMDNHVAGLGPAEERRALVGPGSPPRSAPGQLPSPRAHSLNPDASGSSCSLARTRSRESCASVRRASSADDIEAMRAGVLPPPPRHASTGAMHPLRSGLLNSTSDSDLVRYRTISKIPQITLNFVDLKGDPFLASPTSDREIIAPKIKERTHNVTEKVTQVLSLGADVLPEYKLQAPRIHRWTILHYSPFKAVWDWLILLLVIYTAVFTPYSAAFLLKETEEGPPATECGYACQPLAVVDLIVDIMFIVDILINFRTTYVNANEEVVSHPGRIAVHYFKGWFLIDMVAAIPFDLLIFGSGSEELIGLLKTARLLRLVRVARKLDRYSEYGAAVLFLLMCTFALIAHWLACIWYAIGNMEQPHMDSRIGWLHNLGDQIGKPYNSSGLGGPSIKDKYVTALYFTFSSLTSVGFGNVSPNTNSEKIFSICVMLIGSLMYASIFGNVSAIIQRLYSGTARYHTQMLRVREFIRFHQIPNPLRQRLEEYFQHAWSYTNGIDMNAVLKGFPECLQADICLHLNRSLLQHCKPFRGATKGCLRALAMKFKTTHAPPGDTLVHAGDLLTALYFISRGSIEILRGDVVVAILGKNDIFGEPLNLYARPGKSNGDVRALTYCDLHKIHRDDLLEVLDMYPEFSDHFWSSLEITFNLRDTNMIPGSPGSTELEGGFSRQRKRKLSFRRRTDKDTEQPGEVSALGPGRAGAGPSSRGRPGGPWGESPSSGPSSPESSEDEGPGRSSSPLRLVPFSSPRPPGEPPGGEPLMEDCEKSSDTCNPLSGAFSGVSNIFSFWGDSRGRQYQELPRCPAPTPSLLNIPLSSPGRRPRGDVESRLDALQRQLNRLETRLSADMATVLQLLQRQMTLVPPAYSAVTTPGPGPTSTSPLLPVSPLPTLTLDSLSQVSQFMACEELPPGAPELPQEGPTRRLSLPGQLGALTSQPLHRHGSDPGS

Point of comparison: Cc1ccc(OCc2cc(C(=O)NCC3COCCO3)no2)cc1C (centres unmarked), “hERG current change (%, negative = inhibition) at 1uM” value 8.44%. Against it:
- Cn1c(=O)c2c(nc(CN3CCOCC3)n2CCN2CCOCC2)n(C)c1=O — lower, 7.62%
- CC(C)CC(NC(=O)CC12CC3CC(CC(C3)C1)C2)C(=O)NC1=NCCS1 (centres unmarked) — higher, 23.2%
- Nc1ccccc1Sc1c[nH]c2ccccc12 — higher, 14.1%
- O=S(=O)(c1ccc(Oc2ccc(Br)cc2)cc1)N1CCOCC1 — lower, 5.92%
- COc1ccc(S(=O)(=O)NNC(=O)C23CC4CC(CC(C4)C2)C3)cc1[N+](=O)[O-] — higher, 11.6%
- O=C(CCc1ccccc1)n1nc(-c2ccccc2)nc1NCc1ccco1 — higher, 15.6%
- OCCN(C=NC1=NN(c2cccc(C(F)(F)F)c2)CC1)CCO — lower, 7.14%
- COc1ccc(C2C(C(=O)NCCN3CCOCC3)c3ccccc3C(=O)N2C)cc1OC (centres unmarked) — higher, 12.4%
- C=CCn1c(SCC(=O)NCCCC(=O)OCC)nc2scc(-c3ccco3)c2c1=O — lower, -17.2%
- COCCNC(=O)c1ccc(CSc2nc3ccccc3s2)cc1 — lower, 3.95%
- CCCOC(=O)Nc1c(C)cccc1C(C)C — lower, 6.18%
- O=C(NC(=S)N1CCN(c2c(Cl)cccc2[N+](=O)[O-])CC1)c1cccs1 — higher, 9.7%
- OCCN(CCO)c1nc2ccccc2[nH]1 — lower, 6.28%
- COC(=O)COc1ccc(S(=O)(=O)NCc2ccncc2)cc1 — lower, -0.0031%
- Cc1ccc(Sc2c(CO)c(-c3ccccc3)nn2C)cc1 — higher, 8.89%
- Cc1cc2ncc(C(=O)N=CN(C)C)cn2n1 — lower, 3.01%
- Cc1ccc(CNC(=O)Cc2cn(C)c3ccccc23)cc1 — higher, 14.1%
- CCOc1ccccc1-c1nc(CN2CCCC2c2nccs2)c(C)o1 (centres unmarked) — higher, 14.1%
- C=CCSc1nc(N)c2c(C)c(C)sc2n1 — lower, -9.39%
- CC1(C)CC(=O)C=C(NCCN2CCN(C(=O)Nc3ccc(Cl)c(Cl)c3)CC2)C1 — lower, 6.23%
- O=C(Nc1c2c(nc3ccccc13)CCCC2)c1cccc([N+](=O)[O-])c1 — lower, 5.18%
- CCC(C)c1ccc(S(=O)(=O)N2CCN(c3ccccn3)CC2)cc1 (centres unmarked) — higher, 15.4%
- Cc1ccc(S(=O)(=O)NC(=O)Nc2c(C)cccc2C)cc1 — higher, 11.3%
- CC12CN(S(=O)(=O)c3ccccc3)CC(C)(CN(S(=O)(=O)c3ccccc3)C1)C2 — lower, -3.94%
- CCOc1ccc(OCCSc2nc(-c3ccccc3)cc(=O)[nH]2)cc1 — higher, 17.9%
- CCC1CCCCN1C(=O)CSc1nc(N)cc(=O)[nH]1 (centres unmarked) — higher, 13.2%
- CC1(C)CC(=O)C=C(Nc2ccc(F)cc2F)C1 — higher, 9.38%
- COc1ccc(-c2ccc(SCC(=O)NCc3ccco3)nn2)cc1 — lower, 2.77%
- O=C(COC(=O)CNS(=O)(=O)c1ccc(F)c(F)c1F)NC1CCCC1 — lower, 3.05%
- COc1ccc(OCCOCCN2CCOCC2)cc1 — higher, 13.8%
- O=C(CN1CCNC(=O)C1)NCCc1ccc(Cl)cc1Cl — lower, -0.179%
- c1ccc(-n2ncc3c2ncn2nc(CSc4nc5ccccc5s4)nc32)cc1 — higher, 14.3%
- CC1CC(C)CN(C(=O)Nc2ccccc2F)C1 (centres unmarked) — higher, 9.24%
- COc1ccc(C(=O)C[n+]2cccc(C)c2)cc1.[Br-] — higher, 12.8%
- COc1ccc(CN2C(=O)CCCc3ccccc32)cc1 — higher, 11.9%
- Cc1cccc(OCCC(=O)NCC(c2ccccc2)N(C)C)c1 (centres unmarked) — higher, 9.58%
- CC(=O)Nc1ccc(NC(=O)c2ccc(Cn3cc(Cl)cn3)cc2)cc1 — lower, 3.13%
- CC(=O)c1sc(NC(=O)COc2ccc(Br)cc2)nc1C — higher, 13%
- Cc1ccccc1NS(=O)(=O)c1cc(C(=O)NCCC2=CCCCC2)ccc1Cl — lower, 3.5%
- O=C(CSc1nnc2ccccn12)NNC(=O)c1ccccc1 — higher, 11.4%
- COC(=O)Cn1c(O)c(N=NC(=O)CNC(=O)COc2cccc(C)c2)c2ccccc21 — lower, 1.15%
- COC(=O)Nc1ccc2c(c1)N(C(=O)CCN1CCN3CCCC3C1)c1ccccc1S2.Cl (centres unmarked) — lower, -13.3%
- O=C(CCN1C(=O)c2ccccc2C1=O)NC(=S)Nc1ccccc1Cl — lower, 5.29%
- COc1ccc(C(=O)CCC(=O)Nc2cccnc2)cc1OC — higher, 14.2%
- S=C(NCCc1ccccn1)Nc1ccccc1 — lower, 6.24%
- COc1cc(C(=O)NCCCNc2nc3cc(C)cc(C)c3cc2C#N)cc(OC)c1OC — higher, 10.6%
- O=C(CSCc1ccc(Br)cc1)Nc1ccc(S(=O)(=O)N2CCCCCC2)cc1 — higher, 11.8%
- CCSc1cc(Cl)nc(N)n1 — higher, 10.4%
- CC1CCN(C(=O)Cn2c(=O)c3cccn3c3ccccc32)CC1 — lower, 4.26%
- COC(=O)c1ccc(N2C(=O)c3cc(N4CCOCC4)c([N+](=O)[O-])cc3C2=O)cc1 — higher, 8.91%
- Cc1ccc(N=Cc2nc(-c3ccco3)oc2O)cc1 — lower, 6.76%
- COc1ccc(OC)c(-c2cc(C(=O)N/N=C(\C)c3cccnc3)c3ccccc3n2)c1 — lower, -25.3%
- COC(=O)c1ccc2c(=O)[nH]c(CSc3nnc(C(F)(F)F)n3C)nc2c1 — higher, 17.8%
- COc1cc(OC)cc(C(=O)NNC(=O)c2cc3c(s2)CCCC3)c1 — higher, 17.1%
- N/C(=N\OCc1ccc([N+](=O)[O-])cc1)c1ccccn1 — higher, 9.75%
- COc1cc(/C=C2/NC(=O)N(CC(=O)Nc3ccc(C)cc3)C2=O)ccc1Oc1ccc([N+](=O)[O-])cn1 — higher, 9.21%
- COc1ccccc1CNC(=O)c1ccc(Cl)c(NC2=NC3CS(=O)(=O)CC3S2)c1 (centres unmarked) — lower, 7.81%
- Cc1cc(C)cc(NC(=S)NC2CC3CCCC(C2)N3C2CC2)c1 (centres unmarked) — lower, -32%
- COc1cccc(/C=C/C(=O)OCC(=O)Nc2cccc(S(=O)(=O)N(C)C)c2)c1 — lower, 5.69%
- O=C(C1CSC2(c3ccc(F)cc3)CCC(=O)N12)N1CCCCCC1 (centres unmarked) — lower, -12.1%
- CCCN(CCC)CCNS(=O)(=O)c1ccc2c(c1)CCN2C(=O)C1CCC1 — lower, 0.216%
- O=C(Nc1ccn(Cc2c(F)c(F)c(F)c(F)c2F)n1)c1cccc(Cn2cc([N+](=O)[O-])cn2)c1 — higher, 8.85%
- CC(C)CCC1(CCc2ccncc2)C(=O)NC(=O)NC1=O — lower, -7.04%
- Cc1cccc(-n2c(O)c(/C=N/Nc3nc4c(c(=O)n(C)c(=O)n4C)n3C)c(=O)[nH]c2=S)c1 — lower, 6.01%
- O=C(OCC(=O)N1CCN(Cc2ccccc2)CC1)c1ccc(Cl)cc1 — lower, -21%
- CCNC(=S)NNC(=O)c1cccn(Cc2ccc(Cl)cc2)c1=O — lower, 8.29%
- Cc1ccc(S(=O)(=O)N(C)C)cc1NC(=O)C1CCCCC1 — lower, -1.95%
- CCOc1ccc(-c2nc(C#N)c(N3CCOCC3)o2)cc1 — higher, 8.72%
- CCn1c(COc2cccc3cccnc23)nnc1SCC(=O)OC — lower, 5.96%
- Cc1oc2c(c1C(=O)O)C(=O)c1ccccc1C2=O — lower, 7.47%
- CC(=O)C1=C(O)C(=O)N(c2nccs2)C1c1ccc(Br)cc1 (centres unmarked) — higher, 13.3%
- O=C(Cn1c(=O)[nH]c2ccsc2c1=O)NC1CCCCCC1 — lower, 7.77%
- Cn1c(SCc2nc3ccccc3c(=O)[nH]2)nc2ccccc21 — higher, 15.2%
- Cl.O=C(NCC(c1cccs1)N1CCOCC1)c1ccccc1NS(=O)(=O)c1ccc(Cl)cc1 (centres unmarked) — higher, 14.1%
- COc1cc(S(=O)(=O)NCc2cccnc2)c(OC)cc1Br — higher, 24.5%
- Cc1cc2n(n1)C(c1ccccc1)Nc1ccccc1-2 (centres unmarked) — higher, 14.8%
- CCCc1nnc(NC(=O)CCC(=O)NC2CC2)s1 — higher, 13.7%
- CC(=O)Nc1ccc(S(=O)(=O)N2CCN=C2SCc2ccccc2C)cc1 — higher, 10.1%
- CC(=O)c1cnc2cc(-c3cccc(Br)c3)nn2c1C — higher, 9.39%
- Cc1ccc(N2C(=O)N(CC(=O)Nc3ccccc3C(F)(F)F)C(=O)C2C)cc1 (centres unmarked) — lower, 5.43%
- CCS(=O)(=O)c1ccc(-c2csc(-c3ccc(Cl)cc3)n2)c(Cl)c1Cl — higher, 14.3%
- COc1cccc2cc(C(=O)NC(C)c3ccccc3)c(=O)oc12 (centres unmarked) — higher, 12.6%
- O=c1ccc(-c2ccccc2)nn1Cc1ccccc1 — higher, 11.1%
- O=C(NC(=S)Nc1ccc(S(=O)(=O)Nc2nccs2)cc1)c1ccccc1 — higher, 18.2%
- NNC(=O)CNC(c1ccccc1)c1cc(Br)ccc1N (centres unmarked) — lower, 7.32%
- C=CCNC(=O)NC(=O)COC(=O)c1ccccc1Sc1ccc(C(F)(F)F)cc1[N+](=O)[O-] — higher, 15.3%
- CC1(C)CC(=O)c2c(O)cc(OCC(=O)NCCc3ccc(S(N)(=O)=O)cc3)cc2O1 — lower, -8.77%
- Cc1nn(Cc2c(Cl)cccc2Cl)c(C)c1NC(=O)Cn1nc([N+](=O)[O-])c(Cl)c1C — higher, 13.9%
